Laboratory results published in PubChem BioAssay AID1347165 (National Center for Advancing Translational Sciences (NCATS), 2019).
In all, about 220,000 compounds went through this assay and about 5,700 (2.6%) were called active. Inconclusive results, whose numbers are uncertain, are shown with a selection of clear calls. The call rests on the fitted dose curve; in most records, active means well fitted inhibition curve with a large enough effect; inconclusive means small, poorly fitted or top-dose-only effect; inactive means no such curve, though single readings can be large or run the other way. A potency beside an inconclusive call is a rough fit, not a confirmed value.

target: Lysine-specific demethylase 5B (Homo sapiens) (UniProt Q9UGL1); experiment: Primary screen for KDM5B Histone Demethylases FDH-coupled qHTS; conditions: FDH-coupled NADH fluorescence (FDH is formaldehyde dehydrogenase); activity change, negative = inhibition: at 57.7 µM (top of the series) unless noted; further: nearly all actives have a fitted effect of over 70% in size; on activity change, negative = inhibition: 0% is about no effect
Procedure, shortened: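 Inhibition is measured as reduced NADH fluorescence generation from FDH coupling to formaldehyde release. Truncated KDM5BΔAP at 200 nM final acts on H3K4me3 peptide (12.5 µM in substrate mix) in pH 7.5 HEPES buffer with Tween-20, 30 min, room temperature.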
Potency means the concentration at half of the fitted maximal effect; tags describe the fitted curve by direction and shape.

Chain of UniProt Q9UGL1 (Q9UGL1 whole entry, looked up, the tested form may be a part): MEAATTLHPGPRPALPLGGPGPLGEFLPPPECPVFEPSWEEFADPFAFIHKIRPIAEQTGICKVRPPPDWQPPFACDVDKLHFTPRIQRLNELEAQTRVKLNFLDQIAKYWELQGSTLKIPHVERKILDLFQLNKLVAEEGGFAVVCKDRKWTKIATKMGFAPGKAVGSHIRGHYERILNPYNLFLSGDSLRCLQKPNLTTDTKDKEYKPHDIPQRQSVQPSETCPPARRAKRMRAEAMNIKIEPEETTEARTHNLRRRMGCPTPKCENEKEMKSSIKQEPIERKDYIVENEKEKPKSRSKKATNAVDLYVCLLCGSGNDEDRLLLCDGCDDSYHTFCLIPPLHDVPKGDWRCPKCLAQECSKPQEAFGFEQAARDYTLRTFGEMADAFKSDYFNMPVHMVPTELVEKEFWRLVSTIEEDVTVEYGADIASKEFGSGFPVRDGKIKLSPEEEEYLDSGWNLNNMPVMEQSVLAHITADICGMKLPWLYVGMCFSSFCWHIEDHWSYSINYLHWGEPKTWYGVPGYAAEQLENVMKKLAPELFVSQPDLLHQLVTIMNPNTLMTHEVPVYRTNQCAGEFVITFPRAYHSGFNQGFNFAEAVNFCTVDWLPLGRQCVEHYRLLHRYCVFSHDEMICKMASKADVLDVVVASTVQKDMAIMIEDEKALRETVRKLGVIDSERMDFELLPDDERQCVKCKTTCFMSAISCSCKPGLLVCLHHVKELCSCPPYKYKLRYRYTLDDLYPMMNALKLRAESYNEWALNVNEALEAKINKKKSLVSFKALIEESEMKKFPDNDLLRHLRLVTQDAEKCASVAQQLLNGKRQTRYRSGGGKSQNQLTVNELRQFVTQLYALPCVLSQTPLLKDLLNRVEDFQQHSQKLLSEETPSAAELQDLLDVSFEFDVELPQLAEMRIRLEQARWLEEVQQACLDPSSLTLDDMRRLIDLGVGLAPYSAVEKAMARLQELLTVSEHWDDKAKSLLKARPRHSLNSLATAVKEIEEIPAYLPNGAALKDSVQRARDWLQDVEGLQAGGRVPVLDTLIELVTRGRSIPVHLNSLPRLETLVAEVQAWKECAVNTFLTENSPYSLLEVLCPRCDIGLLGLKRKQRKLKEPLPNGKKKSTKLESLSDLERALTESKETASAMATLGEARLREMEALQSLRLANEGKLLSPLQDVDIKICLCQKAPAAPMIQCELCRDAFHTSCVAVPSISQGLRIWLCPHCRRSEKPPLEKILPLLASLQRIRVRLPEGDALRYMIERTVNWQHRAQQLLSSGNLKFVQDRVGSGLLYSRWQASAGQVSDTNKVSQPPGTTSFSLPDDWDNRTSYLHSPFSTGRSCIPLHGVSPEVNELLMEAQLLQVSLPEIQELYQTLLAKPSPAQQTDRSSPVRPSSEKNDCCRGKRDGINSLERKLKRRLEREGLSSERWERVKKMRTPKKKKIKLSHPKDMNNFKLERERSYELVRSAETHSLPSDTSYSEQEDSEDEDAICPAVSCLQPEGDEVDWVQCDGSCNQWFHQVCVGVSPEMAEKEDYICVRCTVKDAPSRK

Structure (SMILES) | Potency | activity change, negative = inhibition
O=C(CN1C(=O)CNC1=O)NC1CCCN(Cc2ccccn2)C1 (stereo not drawn) | inconclusive: 10 µM [inhibitor, partial curve, poor fit] | 
O=C(NCC1CCCCC1)C1(CCO)CCN(c2ncccn2)C1 (stereo not drawn) | active: 31.6 µM | 
CN1c2cc(C(=O)NCc3ccccc3)ccc2C(=O)N2CCCCCC21 (stereo not drawn) | inconclusive: 31.6 µM [inhibitor, partial curve, poor fit] | 
Cc1ccc(-c2ccc3nnc(CNC(=O)C4(c5ccccc5)CC4)n3n2)cc1 | active: 28.2 µM | 
Cc1ccsc1CN(C)C1CCc2nn(CC3CC3)c(=O)n2CC1 (stereo not drawn) | inconclusive: 25.1 µM [inhibitor, partial curve, poor fit] | 
CCCCNC(=O)Cn1c(=O)cc(C)c2c(C)nn(-c3cccc(Cl)c3C)c21 | inconclusive: 0.891 µM [inhibitor, partial curve, poor fit] | 
Cc1noc2ncnc(N3CCCC(C(=O)Nc4cc(F)ccc4F)C3)c12 (stereo not drawn) |  | inactive: 1.56%
CCCc1cc2c(CCC)cc(=O)oc2cc1O | inconclusive: 11.2 µM [inhibitor, partial curve, poor fit] | 
COc1ccccc1NC(=O)C1=C(C)Nc2nc(-c3ccco3)nn2C1c1cccc(C)c1 (stereo not drawn) | inconclusive: 25.1 µM [inhibitor, partial curve, poor fit] | 
Cc1ccc(CN2CCC(N3CCCC(C(=O)NCCc4ccccc4)C3)CC2)o1 (stereo not drawn) |  | inactive: -6.6%
O=c1c2nc(NCc3cccs3)ccc2ncn1Cc1ccccc1 | active: 39.8 µM | 
CC(C)(C)OC(=O)N1CCC(c2c(C(=O)NCc3ccco3)cnn2-c2ccc(F)cc2F)CC1 | inconclusive: 39.8 µM [inhibitor, single point] | 
Cc1ccc(NS(=O)(=O)c2ccc(-c3cnc(C)o3)cc2)c(C)c1 |  | inactive: 6.42%
COc1cccc(-c2nc(C)c(C(=O)NCc3ccc(C(=O)O)cc3)s2)c1 | inconclusive: 28.2 µM [inhibitor, partial curve, poor fit] | 
CC(CNc1nc2ccccc2c2nc(-c3ccccc3)nn12)c1ccccc1 (stereo not drawn) | inconclusive: 25.1 µM [inhibitor, partial curve, poor fit] | 
CCSc1nc2sc3c(c2c2[n+]1CC(CBr)O2)CCCC3 (stereo not drawn) | inconclusive: 31.6 µM [inhibitor, single point] | 
CC(=O)Nc1cccc(NC(=O)CSc2cn(CC(=O)N3CCCC3)c3ccccc23)c1 | inconclusive: 31.6 µM [inhibitor, single point] | 
NC(=O)c1cccc(-c2cc(-c3cccnc3)c3cncn3c2)c1 | inconclusive: 39.8 µM [inhibitor, partial curve, poor fit] | 
